From the supplement of paper PMC11417369
± gives the standard deviation of the averaged measurements. This is one part of the list.

test system: PfAP2-I AP2 domain 3 (GST-tagged); assay: gcPBM binding intensity (ln(normalized median fluorescence intensity)); higher = stronger DNA binding
Summary of the method: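 Binding intensity values are the highest Masliner-normalised natural-log median intensity among replicate spots of either probe orientation. The binding step lasted 1 h in 1× PBS with 1% milk, 0.2 mg/ml BSA, 0.5% salmon testes DNA and 0.03% Triton X-100, using GST-tagged P. falciparum DNA-binding domains expressed in E. coli on an Agilent 4 × 180k array of primer-extended double-stranded 36-bp intergenic genomic probes plus negative controls. Alexa488 anti-GST antibody and a 488 nm scan detected bound protein.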

| Sequence | gcPBM binding intensity (ln) |
| --- | --- |
| GGGGTATCTTCCTATGCACACTTGTTATGTACTAAC [CACACA_site4610] | 9.48 ± 0.014 |
| TTTTTGTTTTTGTTTTGTACTCATACATACTATCAT [XGTACX_site4210] | 8.09 ± 0.54 |
| ATATATACGTATGAATGTATATTTGTTTGATTTTTT [CACACA_negctrl_site835] | 7.33 ± 0.59 |
| CTTTTATTAAAATTCACACACATAAATTTTTATAAA [CACACA_site1993] | 7.7 ± 0.48 |
| ACCGAAGGAATTTATAGTACACATCATAAATAAATT [XGTACX_site4100] | 7.79 ± 0.53 |
| AATATAAAAAAAAAATGTACATATTATATATATATA [XGTACX_site5113] | 9.035 ± 0.035 |
| AAAAATTTTTTTTCATTTGTTTTTATTCCGTAAAAA [CACACA_negctrl_site1217] | 7.67 ± 0.74 |
| AGTTTGATTTTTTCTTATAATATATTATTATATATT [CACACA_negctrl_site376] | 7.92 ± 0.66 |
| TATAATATAAAATAATGTACTTTGAAATATGACATA [XGTACX_site3579] | 7.46 ± 0.42 |
| TTTTTATTAATAGATATAAATATATAATATGAATGT [TGCATGCA_negctrl_site309] | 7.57 ± 0.53 |
| GAAAATTTAATATAGAACGAAAGCATACACATATAT [GTGCAC_negctrl_site424] | 7.85 ± 0.65 |
| CCATATAATATGAACAGTACACACAAAATAAATTCG [XGTACX_site7590] | 7.91 ± 0.49 |
| AAATATTATAGCACCACACACTTATTTTATATATAT [CACACA_site5281] | 10.8 ± 0.86 |
| ATATATATATATATTTGTACAGATTTATATTATAAT [XGTACX_site7612] | 9.26 ± 0.57 |
| GCGGCGGTATCATGCACACGTATATATTGTAACAGT [CACACA_site4958] | 8.58 ± 0.72 |
| TCATTGAAAAAAATGTGTACTCATCAAGTATATATT [XGTACX_site6430] | 7.67 ± 0.72 |
| TTTACAGATACATTCACACATAAATTCATGTATAAT [CACACA_site5387] | 7.68 ± 0.49 |
| ATTGTTATGAGAACAGCACACAAGCTACATCATATA [CACACA_site8192] | 8.01 ± 0.43 |
| ATATATAATTTTTGTTGTACATTATAAAAATAATTA [XGTACX_site2738] | 7.82 ± 0.28 |

| Sequence | gcPBM binding intensity (ln) |
| --- | --- |
| TTTTAAAAAAATAAAAAATAATAAAAAAAATAAAAA [CACACA_negctrl_site1693] | 7.47 ± 0.55 |
| AATATGATTATTACCCGTACATATTACCTTATGGTA [XGTACX_site1714] | 7.66 ± 0.5 |
| AATGATATTATCTCTTCACACACTCACATACAGACA [CACACA_site8335] | 7.88 ± 0.61 |
| TATATAAGGATATATACACACATATAGGTATTTATA [CACACA_site7092] | 7.46 ± 0.39 |
| TCAGGAATATAAAGTGCACACATAATTTGGGGGCAA [CACACA_site7974] | 10.5 ± 0.45 |
| GTGCATATGTAGATATGTACATATTTATTTATTATT [XGTACX_site7343] | 9.15 ± 0.45 |
| AAAAATAAATAAAGTGGTACATAAAAAAGAGAAATT [XGTACX_site874] | 8.36 ± 0.58 |
| ATAATATATATACAAACACACAATTGTGTCCACATT [CACACA_site1747] | 7.96 ± 0.59 |
| TGTACATATATATAATATATATATCATCATATTTTC [CACACA_negctrl_site1750] | 7.64 ± 0.35 |
| ATTCACGTGTCTTAAAAAAAAAAAAAAGAAAAAAAG [CACACA_negctrl_site573] | 7.86 ± 0.48 |
| ATATATATATATATATGTACATATATATACATATAT [XGTACX_site6987] | 9.36 ± 0.38 |
| TCCTTAAAATATATCACACATTTCGTTCATTTATAA [CACACA_site4346] | 7.96 ± 0.61 |
| TATATATATATATCCACACACATACAGATATTAAGA [CACACA_site4214] | 9.41 ± 0.27 |
| AGTATACGAATAAAATGTACATACAAATTGTTGTAA [XGTACX_site36] | 7.84 ± 0.71 |
| GGATTTATTATATATACACACATACATATATATATA [CACACA_site8669] | 9.46 ± 0.32 |
| GTCTAAGCTTATAGGCGTACACATGAATATGGATGT [XGTACX_site2439] | 8.01 ± 0.62 |
| ATCAAGCGCAATGTGGTGCGTAAATTTTGTATTATA | 10 ± 0.37 |
| ATACATAAAATTAAAACACACATTTGATTAAATACG [CACACA_site7088] | 7.8 ± 0.55 |
| AAAGGATACAGACACACACACACATATATATATATA [CACACA_site906] | 9.27 ± 0.4 |

| Sequence | gcPBM binding intensity (ln) |
| --- | --- |
| ATAAGAAAAAAGAACTGTACTAATAAAATATAAAAA [XGTACX_site3715] | 7.9 ± 0.44 |
| ATTATATAATTGTCTTCACACACACCGATATATATA [CACACA_site8883] | 7.94 ± 0.68 |
| TTATAAAATATATATACATGCACAAAATTATAAGTA [TGCATGCA_site294] | 8.52 ± 0.63 |
| AATCAACATTTTTTTTGCTATTTTTTTTTTTAATTA [CACACA_negctrl_site891] | 7.5 ± 0.84 |
| AAAAAAACATAAAATACACACAACCTTAAGAATGTA [CACACA_site3293] | 7.5 ± 0.59 |
| AAAATTTATTATCTATATAATAATATGAAACAAAAC [GTGCAC_negctrl_site731] | 7.84 ± 0.59 |
| TTTCATTTTTGAAGGTGTACTTAAAATTTATGTAAT [XGTACX_site6671] | 7.89 ± 0.28 |
| CTCATTTTGTTAATGGTGCAAAAAAAAAAAAAAAAA | 11.1 ± 0.73 |
| ATGAAAAAAAGACATGCATGTAAATATAAATTGCTT [TGCATGCA_site504] | 7.83 ± 0.91 |
| AGTAAGAGGCATTAAGCATGCATATTATTATAAGCA [TGCATGCA_site237] | 7.89 ± 0.79 |
| TATTTAAAACTATACACATGCATTATATAAAGATAT [TGCATGCA_site702] | 7.95 ± 0.79 |
| CATTATAAGAGACACACACACATATATAAATATGTA [CACACA_site6621] | 7.61 ± 0.38 |
| AAAAAATTTATAAAAGCACACAAAATAAAAAAAAAT [CACACA_site8420] | 8.38 ± 0.49 |
| GTATGATGTGAACATTGTACGAATGAATATATCTAA [XGTACX_site3789] | 7.49 ± 0.57 |
| ATATAAGTATACACATGTACATATTTCTTATGTATA [XGTACX_site2854] | 7.92 ± 0.49 |
| TATAAAGACACGTACACACACTAAGTATATCCAATA [CACACA_site6855] | 8.2 ± 0.071 |
| AAAATGTTAAATATTAAATATGAAACAAAAAAAAAA [GTGCAC_negctrl_site211] | 8.01 ± 0.69 |
| TAAATACATTTATATACACACCTATATATATATATA [CACACA_site5137] | 9.1 ± 0.26 |
